# Some of the results follow.
# B1: DrGRIFIN (Danio rerio), Q6DGJ1 (protein)
# chain: MTLRFEASCPDGLCPGWSVILKGETPPEASKFEINFLCDRDDRVAFHFNPRFTESDIICNSYMANRWGQEERCNHFPLGVEEPFQIEIYSDNDHFHVYIDKAKVMQYKHRVEDLKTITKLQVVNDVKISSLEITKKLFY
# Legend:
# Assay in all cases: glycan array binding signal (z-score within array); higher = stronger binding
# Conditions in all cases: glycan notation: IUPAC condensed, linker removed
# [1] = target: Neu5Ac(a2-3)Gal(b1-4)[Fuc(a1-3)]GlcNAc(b1-3)Gal(b1-4)GlcNAc
# How it was run: (§1)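 The binding signal is a Z-score computed within each array. Data were drawn from 3228 arrays in the Consortium for Functional Glycomics database, restricted to those with a known protein sequence. Scores were averaged over arrays of the same protein sequence at different concentrations or buffers, and over linkers, and negative values can be taken as non-binding.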
# [2] = target: Neu5Ac(a2-3)Gal(b1-4)[Fuc(a1-3)]GlcNAc(b1-3)Gal(b1-4)[Fuc(a1-3)]GlcNAc(b1-3)Gal(b1-4)[Fuc(a1-3)]GlcNAc
# How it was run: as §1
# [3] = target: Neu5Ac(a2-3)Gal(b1-4)[Fuc(a1-3)]GlcNAc(b1-3)GalNAc
# How it was run: as §1
# [4] = target: Neu5Ac(a2-3)Gal(b1-4)[Fuc(a1-3)]GlcNAc(b1-6)[Gal(b1-3)]GalNAc
# How it was run: as §1
# [5] = target: Neu5Ac(a2-3)Gal(b1-4)[Fuc(a1-3)]GlcNAc(b1-6)[Neu5Ac(a2-3)Gal(b1-3)]GalNAc
# How it was run: as §1
# [6] = target: Neu5Ac(a2-3)Gal(b1-4)[Fuc(a1-3)]GlcNAc6S
# How it was run: as §1
# [7] = target: Neu5Ac(a2-3)Gal6S(b1-4)GlcNAc
# How it was run: as §1
# [8] = target: Neu5Ac(a2-3)Gal6S(b1-4)[Fuc(a1-3)]GlcNAc
# How it was run: as §1
# Neu5Ac(a2-3)GalNAc = target: Neu5Ac(a2-3)GalNAc
# How it was run: as §1
# [9] = target: Neu5Ac(a2-3)GalNAc(b1-4)GlcNAc
# How it was run: as §1
# [10] = target: Neu5Ac(a2-3)[GalNAc(b1-4)]Gal(b1-4)Glc
# How it was run: as §1
# [11] = target: Neu5Ac(a2-3)[GalNAc(b1-4)]Gal(b1-4)GlcNAc
# How it was run: as §1
# [12] = target: Neu5Ac(a2-3)[GalNAc(b1-4)]Gal(b1-4)GlcNAc(b1-3)GalNAc
# How it was run: as §1
# [13] = target: Neu5Ac(a2-3)[Neu5Ac(a2-6)]GalNAc
# How it was run: as §1
# Neu5Ac(a2-6)Gal = target: Neu5Ac(a2-6)Gal
# How it was run: as §1
# [14] = target: Neu5Ac(a2-6)Gal(b1-3)GlcNAc(b1-3)[Gal(b1-4)GlcNAc(b1-6)]Gal(b1-4)Glc
# How it was run: as §1
# Neu5Ac(a2-6)Gal(b1-4)Glc = target: Neu5Ac(a2-6)Gal(b1-4)Glc
# How it was run: as §1
# [15] = target: Neu5Ac(a2-6)Gal(b1-4)GlcNAc
# How it was run: as §1
# [16] = target: Neu5Ac(a2-6)Gal(b1-4)GlcNAc(b1-2)Man
# How it was run: as §1
# [17] = target: Neu5Ac(a2-6)Gal(b1-4)GlcNAc(b1-2)Man(a1-3)Man(b1-4)GlcNAc(b1-4)GlcNAc
# How it was run: as §1
# [18] = target: Neu5Ac(a2-6)Gal(b1-4)GlcNAc(b1-2)Man(a1-3)[Gal(b1-4)GlcNAc(b1-2)Man(a1-6)]Man(b1-4)GlcNAc(b1-4)GlcNAc
# How it was run: as §1
# [19] = target: Neu5Ac(a2-6)Gal(b1-4)GlcNAc(b1-2)Man(a1-3)[GlcNAc(b1-4)][Neu5Ac(a2-6)Gal(b1-4)GlcNAc(b1-2)Man(a1-6)]Man(b1-4)GlcNAc(b1-4)GlcNAc
# How it was run: as §1
# [20] = target: Neu5Ac(a2-6)Gal(b1-4)GlcNAc(b1-2)Man(a1-3)[Man(a1-6)]Man(b1-4)GlcNAc(b1-4)GlcNAc
# How it was run: as §1
binder,measurement,setting,value
B1,glycan array binding signal (z-score),[1],-0.152
same,glycan array binding signal (z-score),[2],-0.165
same,glycan array binding signal (z-score),[3],-0.163
same,glycan array binding signal (z-score),[4],-0.185
same,glycan array binding signal (z-score),[5],-0.174
same,glycan array binding signal (z-score),[6],-0.148
same,glycan array binding signal (z-score),[7],-0.179
same,glycan array binding signal (z-score),[8],-0.229
same,glycan array binding signal (z-score),Neu5Ac(a2-3)GalNAc,-0.088
same,glycan array binding signal (z-score),[9],-0.2
same,glycan array binding signal (z-score),[10],-0.164
same,glycan array binding signal (z-score),[11],-0.198
same,glycan array binding signal (z-score),[12],-0.171
same,glycan array binding signal (z-score),[13],-0.139
same,glycan array binding signal (z-score),Neu5Ac(a2-6)Gal,-0.176
same,glycan array binding signal (z-score),[14],-0.163
same,glycan array binding signal (z-score),Neu5Ac(a2-6)Gal(b1-4)Glc,-0.017
same,glycan array binding signal (z-score),[15],-0.14
same,glycan array binding signal (z-score),[16],-0.156
same,glycan array binding signal (z-score),[17],-0.156
same,glycan array binding signal (z-score),[18],-0.204
same,glycan array binding signal (z-score),[19],-0.107
same,glycan array binding signal (z-score),[20],-0.19
